Experimental data reported in publication PMC12136788.
Some of the results follow.

T1: UNK ZnF1-3 (human, UniProt Q9C0B0 31-174)
T1 sequence: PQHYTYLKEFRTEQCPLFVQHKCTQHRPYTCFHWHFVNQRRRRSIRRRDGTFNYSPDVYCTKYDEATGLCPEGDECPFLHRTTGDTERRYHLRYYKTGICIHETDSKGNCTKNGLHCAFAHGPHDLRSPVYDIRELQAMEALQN

B1: chr2:179883191:179883192:+_ENSMUSG00000039050_ENSMUST00000040668|mus_mus|motif|central (ssRNA)
RNA: GGGAGUUCUACAGUCCGACGAUCGUAGAUGGAACCGUGGAACCUGAAGUCUUGAUUGAGACCUUCUGAAUAAAAUGCGCGGAUAGGAGGGUGGUGACUGACCUGCUCAGAUAUAAAUCUGAACCCUAAGUCUUCCCUGAUCAACAACAGAGGAUUGAGCAUCA
B2: 31070288_31070408_2187_3pUTR_ENSMUSG00000000194_ENSMUST00000056433|mouse|control|control (ssRNA)
RNA: GGGAGUUCUACAGUCCGACGAUCAAAGAAUUUCAUUCAUUUCUGUGGUUCUUGUCCCCAAAGGCUGACAAUCCCUUUCUCCUAUGCCCUUGGUAGAUAUCUGUCUAGUUCCCAAAGUAAAUCCUUCUCCCCCACCCUGGUGCUCAACAGAGGAUUGAGCAUCA
B3: 35719413_35722846_1177_CDS_ENSMUSG00000022848_ENSMUST00000023554|mouse|control|control (ssRNA)
RNA: GGGAGUUCUACAGUCCGACGAUCGUGGGUGAUGCUGUUUAGGCAGGUCAGGGUGAACCACGUGGACGACAGGGUAGCCCCAGAAAACAGGAGGAGCAGGAUCAGUUUCAGCAUGCCCCGGAUAAAAUCCGCAAACCUUGCCAUCAACAGAGGAUUGAGCAUCA
B4: chr11:87793471:87793472:-_ENSMUSG00000020483_ENSMUST00000020775|mus_mus|mus_mus_mus_hu_False|58_108 (ssRNA)
RNA: GGGAGUUCUACAGUCCGACGAUCUGGGGGCUGGGGAAAAAGAAUAAGCUGGAUCCCCCACCCCCCCACAUUGUCAACCCUAUGCGAGAGUUUUGAAGGCGACUCAUGAAAAUCAGCAGCUCAAACGGCAAUGACCACCCCACCCAACAGAGGAUUGAGCAUCA
B5: 127786347_127786837_1303_CDS_ENSG00000058262_ENST00000243253|human|control|control (ssRNA)
RNA: GGGAGUUCUACAGUCCGACGAUCCUGCUUUGCAACAUCUUUGGCAGAGGAACCUGAGACCUCAAUCCACGUUUUGGAGAAGAAUGCACAGGAGCCCAGCAUGAACACUAUGUAUACAACUGCAUGGACCGGGUCUUCUAACACCAACAGAGGAUUGAGCAUCA
B6: chr1:185278638:185278639:-_ENSG00000116679_ENST00000392007|hu_mus|FALSE|FALSE (ssRNA)
RNA: GGGAGUUCUACAGUCCGACGAUCUAAAAUUUUCAUCUUCAAACAUCAAAUAUCCAUUGGGAAUCAUUUUUCCUUAUAAAUUUGGCAACAAUUACUGAAGAGAAAUGUGUCACUGAGAACGCAAAUGAUCCAAAGACAAAGAAGCAACAGAGGAUUGAGCAUCA
B7: chr3:150289932:150289933:+_ENSG00000144895_ENST00000460851|hu_hu|hu_hu_hu_mus_False|78_78 (ssRNA)
RNA: GGGAGUUCUACAGUCCGACGAUCCUUGUAGUUUUUAACAUCCCAUACUUCCAUUUGUCCCCUCAGAUUUCCAAAUCCAGCCAGCACUAAUAUAUGUCCAUGAGGGCUAUAGAAGGCUGCGUUGCGAGGACCAGUCCCAAAGUCCAACAGAGGAUUGAGCAUCA
B8: chr1:225611761:225611762:-_ENSG00000143815_ENST00000272163|hu_mus|hu_hu_hu_mus_True|28_88 (ssRNA)
RNA: GGGAGUUCUACAGUCCGACGAUCCCAGGCCAUCGGCCUCUGACCACUUCACCAUCGACAAACUUCCUACUUGGCAUUUUCUAAAAUUAGUCUGGCCGCGCUCCGGCCGGUGACACGGCCACUCCAGGACAGUCACCAGCAGCCCAACAGAGGAUUGAGCAUCA
B9: chr1:60041781:60041782:+_ENSMUSG00000041040_ENSMUST00000036540|mus_hu|mus_mus_mus_hu_False|18_38 (ssRNA)
RNA: GGGAGUUCUACAGUCCGACGAUCAAGUUUACAAUAGUAAAGUAAAUGCAGUAGUGGCAAAUUUUCUUUUAUUUUCCUUCACAAAAGAAAAUCUUUAGAUCUCAGUUCUAGUCUUGGCAGAGAAAGCAGCUAUAAAUUCUGACUCAACAGAGGAUUGAGCAUCA
B10: chr4:71691144:71691145:-_ENSG00000132463_ENST00000545193|hu_hu|FALSE|FALSE (ssRNA)
RNA: GGGAGUUCUACAGUCCGACGAUCGGCCUUCCCACUGGAGCUGUAUUCCAUGGUGAUUCUAACAGGCUUGAGUGGAGCAAAAAAGUUUAUAAUGUCUUGGGCAUUGGCUUGGAAAGGUAAUCCUCUCAUGUGGACAAAAUGCAGCAACAGAGGAUUGAGCAUCA
B11: 44155223_44156325_877_CDS_ENSMUSG00000035696_ENSMUST00000045793|mouse|control|control (ssRNA)
RNA: GGGAGUUCUACAGUCCGACGAUCAGGAUGAUGGGGAGAAAGAUGAGGAGGAUGUAUAAGAAACGGAUCGCUAGAAAUGAGGGGCGGGAACGCAGCAUAUGGUACUGGUAAGUGCUGAACUGAACAUGCCUGAAGCAUUGGAGGCAACAGAGGAUUGAGCAUCA
B12: 115118305_115119361_312_CDS_ENSG00000116752_ENST00000369541|human|control|control (ssRNA)
RNA: GGGAGUUCUACAGUCCGACGAUCGUUUACACAUUCUUGCCAUGCAGUAAUGUCAUUUUUUUGACCAGAGGAGGGGGCUGGAAGCUCAUAUCGUUUCAUACUGAGCAAUUCAAUUGGUUGUCGAGCAGCCAGUCUUUCAAAUUCCAACAGAGGAUUGAGCAUCA
B13: chr11:109260588:109260589:+_ENSMUSG00000020611_ENSMUST00000020930|mus_mus|FALSE|FALSE (ssRNA)
RNA: GGGAGUUCUACAGUCCGACGAUCCUUCACCAGAGGACCCUUUGGGUGUGGAGUACCCACAAUGCACUGCGAUAGGAAAACAAACAAACAAACAAAAAAACCCAACAUGCUCCUCUUCAGGACAUCCUGUCUGGCUUGGCUGAACAACAGAGGAUUGAGCAUCA
B14: 8038687_8046011_421_CDS_ENSG00000066044_ENST00000407627|human|control|control (ssRNA)
RNA: GGGAGUUCUACAGUCCGACGAUCCAUGGUCCGCGGGAGCCCGCUGAUGUACAAGUUGGCGUCUUUGAUCACCUCUGAGCUCGGGCGAGCAUACGACACCUUAAUGGUUUUUGACUGGAGCCUCAAGCCGUUCAGCGUGUUGAUCAACAGAGGAUUGAGCAUCA

What follows are binders tested against T1, UNK ZnF1-3 (assay: nsRBNS (natural sequence RNA bind-n-seq); RBNS binding buffer (assumed for nsRBNS): 25 mM Tris pH 7.5, 150 mM KCl, 3 mM MgCl2, 0.01% Triton X-100, 500 ug/ml BSA, 20 U/ml SUPERase-In, 4 C; UNK is unkempt and MSI1 is Musashi-1; names of the RNAs are library labels; protein concentration not given here; high values mean tight binding).
B1 showed a binding signal of 1.22 enrichment R. In the case of B2, the binding signal is reported as 0.776 enrichment R. Binder B3 has a binding signal of 1.23 enrichment R. In the case of B4, the binding signal is reported as 1.44 enrichment R. Binder B5 has a binding signal of 1.45 enrichment R. B6 gave a binding signal of 1.18 enrichment R. B7 gave a binding signal of 1.1 enrichment R. B8 showed a binding signal of 0.973 enrichment R. B9 was tested, and the binding signal was 0.705 enrichment R. B10 gave a binding signal of 1.45 enrichment R. For B11, the binding signal was 1.62 enrichment R. With B12 the binding signal was 0.494 enrichment R. Work on B13 yielded a binding signal of 1.68 enrichment R. B14 showed a binding signal of 0.494 enrichment R.
